# Laboratory results from the supplement of paper PMC3334620.
# Over roughly 33,000 sequences, “E-score (-0.5 to 0.5)” has its median near -0.016; the highest 2% begin near 0.31. Some of the results follow.
# Target: Cst6 (UniProt P40535)
# Assay: PBM E-score (8-mer binding enrichment) (E-score (-0.5 to 0.5)); higher = stronger / more preferred TF binding; most listed sequences are background and not binding sites
# Settings: protein concentration: 200 nM; construct: GST-DNA-binding domain
# Method in brief: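 Universal all-10-mer Agilent arrays, fresh or stripped once, were converted to double-stranded form by primer extension. GST-tagged yeast transcription factors from PURExpress in vitro transcription/translation, full-length or DNA-binding domain only, were applied at about 100-200 nM and detected with fluorescent anti-GST. After masliner normalisation, the Universal PBM Analysis Suite scored each ungapped eight-base word together with its reverse complement by E-score.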
row,Sequence,PBM E-score
1,GTCCCATA,-0.14
2,CGGACACC,-0.251
3,AGCGGAGC,-0.217
4,GTCCGACA,-0.00974
5,GGGCGTTA,0.0804
6,TAGTCTGA,0.0293
7,GACGGTGA,0.0968
8,CGTAGAGC,0.0266
9,CCATTCGA,0.126
10,GCAACCAA,0.0886
11,CTTCCCAC,0.0313
12,GGAACACC,-0.343
13,AGAACTAA,0.173
14,ATCGACGG,0.0039
15,GACCCTCC,-0.246
16,TCAACGCA,0.105
17,GGCTCTAC,-0.236
18,TAAGACAA,0.186
19,CATAATTA,0.304
20,CTCCGAGC,-0.0988
21,AAGATGTA,0.169
22,ACGGGTTC,-0.13
23,ACCCTAAT,-0.116
24,GCGCAATA,-0.079
25,ATCAGGGG,-0.362

row,Sequence,PBM E-score
1,GGCACATA,0.14
2,AGAAGGGC,-0.176
3,GTGTCCCA,-0.0405
4,GGAGGCAA,-0.3
5,CAGCGAAC,-0.0605
6,AGGTCGAG,-0.158
7,AGAGATAA,0.119
8,CACACACG,0.148
9,ATCGGCTG,-0.0495
10,CGTGGACC,-0.274
11,AGTTTTTC,0.089
12,AACGCAGA,-0.143
13,CGTTGCCA,0.0299
14,GGGCTGAA,-0.0485
15,ATCGATTC,-0.0173
16,CCATCAGG,-0.32
17,ATATAAGG,0.228
18,TATCACGA,0.153
19,GTAAGAAC,0.211
20,CTCGTAAC,0.159
21,AATTTCAA,0.0956
22,ACAAACCT,-0.0217
23,GTATGCTA,0.00634
24,CCGCTAGG,-0.117
25,CACCACAA,0.061

row,Sequence,PBM E-score
1,CGGGCACG,-0.0814
2,AACCTTCT,-0.282
3,GTAATATA,0.354
4,ACGTCGCA,0.114
5,ACTGGGCA,-0.16
6,ATCGGGTC,-0.157
7,CAGCACTC,-0.0867
8,ATTCTTAA,0.0832
9,CCGGGAAC,-0.0978
10,CCCTTGCC,-0.336
11,GATTTTGC,-0.0785
12,GCGACACC,-0.173
13,ACCCCTTC,-0.208
14,CATCGCCG,0.124
15,CCACCGGC,-0.25
16,CGTCTTTA,0.232
17,CCCTTTTA,-0.0939
18,GCCATACC,-0.243
19,CGGACTAG,-0.236
20,TCGTCAGA,0.124
21,AGGATAGG,-0.178
22,GAGTTATA,0.0673
23,GGCGAGGA,-0.225
24,GCTATCCA,-0.171
25,GCGGCAAC,0.183

row,Sequence,PBM E-score
1,ACATGCGA,-0.00307
2,CGTTAGAG,-0.138
3,ATGTGGTA,0.12
4,GCGAGAGA,-0.179
5,ACTGATCT,0.139
6,GAGGACAC,-0.0612
7,ACCTCCAC,-0.114
8,ACAGCGCA,-0.186
9,ATCCGGCG,-0.0229
10,ATACGGAT,0.248
11,AAATCCAT,0.245
12,AGCTACAG,-0.294
13,ATGTGAAT,0.0822
14,AGTTTACA,0.106
15,AAAGAAGC,0.0364
16,CCTCCTTC,-0.185
17,CCAAGCGC,-0.0706
18,CCGACTCC,-0.268
19,GGTAATCA,0.114
20,TAAAAGGA,0.0668
21,CTTGCGTC,0.249
22,GACGTGGA,0.197
23,AAGTAGCC,-0.261
24,AGAGAGAC,-0.136
25,GCGAATTA,0.269

row,Sequence,PBM E-score
1,ACAATTGG,-0.0827
2,GAGCTTGC,-0.272
3,AACATTTC,0.148
4,GGACTATA,-0.0671
5,CGAATTGC,-0.0408
6,AGGTACCG,0.0389
7,TCGCGGAA,-0.193
8,GAATCTGC,-0.126
9,CTACCCCC,-0.411
10,GAGCCGCA,0.28
11,CCGACCGA,-0.17
12,ATTAGCAC,0.0142
13,GGACTGCC,-0.248
14,CCCACACG,-0.0649
15,AGGTTTTG,-0.144
16,CACCCCCG,-0.127
17,ACCGGTGA,0.125
18,GCCCTCCA,-0.19
19,ATCTACCC,-0.0121
20,CCATTACG,0.295
21,ACAACTCT,-0.104
22,ACAACTGA,0.0407
23,ACTGTGCG,0.0555
24,ATTGTGTG,0.0682
25,ACCTCCGA,-0.321

row,Sequence,PBM E-score
1,AGAGTATC,0.0606
2,GGCTTACA,0.0454
3,TACGTATA,0.328
4,AAGGGACA,-0.141
5,GGATGGCA,0.157
6,GGGGCGAA,-0.0813
7,AAAGCAAT,0.182
8,AACACAAC,0.139
9,TGTCCTAA,-0.00039
10,AAATACCA,0.0819
11,GAAGCTAC,-0.093
12,ACGAGGCC,-0.189
13,AACGGGGG,-0.128
14,ATGGTGTG,0.0348
15,GCTTTCAC,-0.0161
16,ACTTCCAC,-0.072
17,AAGGGAAA,-0.0675
18,CCGAAGCG,-0.228
19,ATCCAACA,0.084
20,CCTGTATC,0.0274
21,GCCGAGTA,-0.233
22,ATGTTGCG,0.203
23,CATACTAG,0.0942
24,AGATCAAC,0.11
25,AGGTACCA,-0.206

row,Sequence,PBM E-score
1,ATCTAAGC,-0.197
2,ACGTACGA,0.0335
3,ATGGCGAG,-0.095
4,CAGCCGTA,0.0842
5,AGTATGGA,-0.0592
6,CACGATGA,0.158
7,AGCCCGTG,-0.277
8,AATCAGGC,-8e-05
9,GTTAAAGA,0.103
10,ACCCTCCT,-0.25
11,GATTGAGC,0.0772
12,CAGTAGCA,-0.0996
13,GGTGCAAA,-0.0791
14,ATACCAGA,-0.0118
15,ACCAGACG,0.074
16,GGGCCGGA,-0.211
17,CCAAACAC,-0.0522
18,GCGTGGGA,-0.0642
19,AACCGCTG,-0.159
20,AATACCAG,0.00119
21,GCATTCTA,0.124
22,CGAAAGGA,-0.015
